Experimental data as given in patent US8933233B2, “1,3,4-oxadiazole and 1,3,4-thiadiazole β-lactamase inhibitors” (priority 2012, dated 2015).
Structures can show the parent of a compound that is named as a salt. Some entries share one result that the patent states for a list of compounds. For at least one compound, name, drawing or mass did not settle the structure.

target: KPC-2 (Klebsiella pneumoniae, UniProt Q9F663); assay type: biochemical, K. pneumoniae; settings: KPC-2, procedure of Example 102, Table IV (kinact/K)
Sequence (Q9F663 25-293 limits assumed): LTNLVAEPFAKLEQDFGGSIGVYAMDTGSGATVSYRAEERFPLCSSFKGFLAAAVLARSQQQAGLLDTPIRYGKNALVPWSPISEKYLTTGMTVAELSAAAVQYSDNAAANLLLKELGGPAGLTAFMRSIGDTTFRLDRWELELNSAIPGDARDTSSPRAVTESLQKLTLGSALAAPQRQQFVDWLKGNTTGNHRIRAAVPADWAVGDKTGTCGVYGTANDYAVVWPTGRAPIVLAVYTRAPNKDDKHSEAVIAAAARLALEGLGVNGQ

Compared with `N=C(N)N1CC(NCc2nnc([C@@H]3CC[C@@H]4CN3C(=O)N4OS(=O)(=O)O)o2)C1` [Compound 746, (2S,5R)-2-(5-(((1-carbamimidoylazetidin-3-yl)amino)methyl)-1,3,4-oxadiazol-2-yl)-7-oxo-1,6-diazabicyclo[3.2.1]octan-6-yl hydrogen sulfate], `O=C1N2C[C@@H](CC[C@H]2c2nnc(CN[C@H]3CCNC3)o2)N1OS(=O)(=O)O` [Compound 765, (2S,5R)-7-oxo-2-(5-(((S)-pyrrolidin-3-ylamino)methyl)-1,3,4-oxadiazol-2-yl)-1,6-diazabicyclo[3.2.1]octan-6-yl hydrogen sulfate] is lower in binding affinity: 100 to 999 mM⁻¹ s⁻¹ for the first, 1 to 99 mM⁻¹ s⁻¹ for the second.

`O=C1N2C[C@@H](CC[C@H]2c2nnc(C3CC4(CNC4)C3)o2)N1OS(=O)(=O)O` [Compound 750, (2S,5R)-2-(5-(2-azaspiro[3.3]heptan-6-yl)-1,3,4-oxadiazol-2-yl)-7-oxo-1,6-diazabicyclo[3.2.1]octan-6-yl hydrogen sulfate] and `O=C1N2C[C@@H](CC[C@H]2c2nnc([C@H]3CCNC3)o2)N1OS(=O)(=O)O` [Compound 758, (2S,5R)-7-oxo-2-(5-((S)-pyrrolidin-3-yl)-1,3,4-oxadiazol-2-yl)-1,6-diazabicyclo[3.2.1]octan-6-yl hydrogen sulfate] fall in the same range of binding affinity: 1 to 99 mM⁻¹ s⁻¹ for the first, 1 to 99 mM⁻¹ s⁻¹ for the second.

`N[C@H]1C[C@H](Cc2nnc([C@@H]3CC[C@@H]4CN3C(=O)N4OS(=O)(=O)O)o2)C1` [Compound 751, (2S,5R)-2-(5-(((1r,3S)-3-aminocyclobutyl)methyl)-1,3,4-oxadiazol-2-yl)-7-oxo-1,6-diazabicyclo[3.2.1]octan-6-yl hydrogen sulfate] and `N[C@H]1C[C@@H](CCc2nnc([C@@H]3CC[C@@H]4CN3C(=O)N4OS(=O)(=O)O)o2)C1` [Compound 754, (2S,5R)-2-(5-(2-((1s,3S)-3-aminocyclobutyl)ethyl)-1,3,4-oxadiazol-2-yl)-7-oxo-1,6-diazabicyclo[3.2.1]octan-6-yl hydrogen sulfate] fall in the same range of binding affinity: 1 to 99 mM⁻¹ s⁻¹ for the first, 1 to 99 mM⁻¹ s⁻¹ for the second.

`NC1CC(NCc2nnc([C@@H]3CC[C@@H]4CN3C(=O)N4OS(=O)(=O)O)o2)C1` (stereo partly drawn) [Compound 755, (2S,5R)-2-(5-(((3-aminocyclobutyl)amino)methyl)-1,3,4-oxadiazol-2-yl)-7-oxo-1,6-diazabicyclo[3.2.1]octan-6-yl hydrogen sulfate] and `N[C@H]1C[C@@H](NCc2nnc([C@@H]3CC[C@@H]4CN3C(=O)N4OS(=O)(=O)O)o2)C1` [Compound 756, (2S,5R)-2-(5-((((1s,3R)-3-aminocyclobutyl)amino)methyl)-1,3,4-oxadiazol-2-yl)-7-oxo-1,6-diazabicyclo[3.2.1]octan-6-yl hydrogen sulfate] fall in the same range of binding affinity: 1 to 99 mM⁻¹ s⁻¹ for the first, 1 to 99 mM⁻¹ s⁻¹ for the second.

`O=C1N2C[C@@H](CC[C@H]2c2nnc([C@@H]3CCNC3)o2)N1OS(=O)(=O)O` [Compound 759, (2S,5R)-7-oxo-2-(5-((R)-pyrrolidin-3-yl)-1,3,4-oxadiazol-2-yl)-1,6-diazabicyclo[3.2.1]octan-6-yl hydrogen sulfate] and `O=C1N2C[C@@H](CC[C@H]2c2nnc([C@@H]3CNCCN3)o2)N1OS(=O)(=O)O` [Compound 778, (2S,5R)-7-oxo-2-(5-((S)-piperazin-2-yl)-1,3,4-oxadiazol-2-yl)-1,6-diazabicyclo[3.2.1]octan-6-yl hydrogen sulfate] fall in the same range of binding affinity: 1 to 99 mM⁻¹ s⁻¹ for the first, 1 to 99 mM⁻¹ s⁻¹ for the second.

`N[C@@H]1CN[C@H](c2nnc([C@@H]3CC[C@@H]4CN3C(=O)N4OS(=O)(=O)O)o2)C1` [Compound 760, (2S,5R)-2-(5-((2S,4S)-4-aminopyrrolidin-2-yl)-1,3,4-oxadiazol-2-yl)-7-oxo-1,6-diazabicyclo[3.2.1]octan-6-yl hydrogen sulfate] and `N[C@H]1CN[C@@H](c2nnc([C@@H]3CC[C@@H]4CN3C(=O)N4OS(=O)(=O)O)o2)C1` [Compound 761, (2S,5R)-2-(5-((2R,4R)-4-aminopyrrolidin-2-yl)-1,3,4-oxadiazol-2-yl)-7-oxo-1,6-diazabicyclo[3.2.1]octan-6-yl hydrogen sulfate] fall in the same range of binding affinity: 1 to 99 mM⁻¹ s⁻¹ for the first, 1 to 99 mM⁻¹ s⁻¹ for the second.

`N[C@H]1CN[C@H](c2nnc([C@@H]3CC[C@@H]4CN3C(=O)N4OS(=O)(=O)O)o2)C1` [Compound 762, (2S,5R)-2-(5-((2S,4R)-4-aminopyrrolidin-2-yl)-1,3,4-oxadiazol-2-yl)-7-oxo-1,6-diazabicyclo[3.2.1]octan-6-yl hydrogen sulfate] and `N[C@@H]1CN[C@@H](c2nnc([C@@H]3CC[C@@H]4CN3C(=O)N4OS(=O)(=O)O)o2)C1` [Compound 763, (2S,5R)-2-(5-((2R,4S)-4-aminopyrrolidin-2-yl)-1,3,4-oxadiazol-2-yl)-7-oxo-1,6-diazabicyclo[3.2.1]octan-6-yl hydrogen sulfate] fall in the same range of binding affinity: 1 to 99 mM⁻¹ s⁻¹ for the first, 1 to 99 mM⁻¹ s⁻¹ for the second.

`O=C1N2C[C@@H](CC[C@H]2c2nnc(CC3CCNC3)o2)N1OS(=O)(=O)O` (stereo partly drawn) [Compound 764, (2S,5R)-7-oxo-2-(5-(pyrrolidin-3-ylmethyl)-1,3,4-oxadiazol-2-yl)-1,6-diazabicyclo[3.2.1]octan-6-yl hydrogen sulfate] and `O=C1N2C[C@@H](CC[C@H]2c2nnc(CN[C@@H]3CCNC3)o2)N1OS(=O)(=O)O` [Compound 766, (2S,5R)-7-oxo-2-(5-(((R)-pyrrolidin-3-ylamino)methyl)-1,3,4-oxadiazol-2-yl)-1,6-diazabicyclo[3.2.1]octan-6-yl hydrogen sulfate] fall in the same range of binding affinity: 1 to 99 mM⁻¹ s⁻¹ for the first, 1 to 99 mM⁻¹ s⁻¹ for the second.

`N=C1NCC(c2nnc([C@@H]3CC[C@@H]4CN3C(=O)N4OS(=O)(=O)O)o2)N1` (stereo partly drawn) [Compound 767, (2S,5R)-2-(5-(2-iminoimidazolidin-4-yl)-1,3,4-oxadiazol-2-yl)-7-oxo-1,6-diazabicyclo[3.2.1]octan-6-yl hydrogen sulfate] and `O=C1N2C[C@@H](CC[C@H]2c2nnc([C@H]3CNCCN3)o2)N1OS(=O)(=O)O` [Compound 779, (2S,5R)-7-oxo-2-(5-((R)-piperazin-2-yl)-1,3,4-oxadiazol-2-yl)-1,6-diazabicyclo[3.2.1]octan-6-yl hydrogen sulfate] fall in the same range of binding affinity: 100 to 999 mM⁻¹ s⁻¹ for the first, 100 to 999 mM⁻¹ s⁻¹ for the second.

First: O=C1N2C[C@@H](CC[C@H]2c2nnc(CNC3CCNCC3)o2)N1OS(=O)(=O)O [Compound 769, (2S,5R)-7-oxo-2-(5-((piperidin-4-ylamino)methyl)-1,3,4-oxadiazol-2-yl)-1,6-diazabicyclo[3.2.1]octan-6-yl hydrogen sulfate]
Second: O=C1N2C[C@@H](CC[C@H]2c2nnc(CCNC3CCNCC3)o2)N1OS(=O)(=O)O [Compound 770, (2S,5R)-7-oxo-2-(5-(2-(piperidin-4-ylamino)ethyl)-1,3,4-oxadiazol-2-yl)-1,6-diazabicyclo[3.2.1]octan-6-yl hydrogen sulfate]
The binding affinity of the first is lower: 1 to 99 mM⁻¹ s⁻¹ for the first, 100 to 999 mM⁻¹ s⁻¹ for the second.

`O=C1N2C[C@@H](CC[C@H]2c2nnc(CCCNC3CCNCC3)o2)N1OS(=O)(=O)O` [Compound 771, (2S,5R)-7-oxo-2-(5-(3-(piperidin-4-ylamino)propyl)-1,3,4-oxadiazol-2-yl)-1,6-diazabicyclo[3.2.1]octan-6-yl hydrogen sulfate] and `O=C1N2C[C@@H](CC[C@H]2c2nnc(CCCCNC3CCNCC3)o2)N1OS(=O)(=O)O` [Compound 772, (2S,5R)-7-oxo-2-(5-(4-(piperidin-4-ylamino)butyl)-1,3,4-oxadiazol-2-yl)-1,6-diazabicyclo[3.2.1]octan-6-yl hydrogen sulfate] fall in the same range of binding affinity: 1 to 99 mM⁻¹ s⁻¹ for the first, 1 to 99 mM⁻¹ s⁻¹ for the second.

`NC1CCN(c2nnc([C@@H]3CC[C@@H]4CN3C(=O)N4OS(=O)(=O)O)o2)CC1` [Compound 773, (2S,5R)-2-(5-(4-aminopiperidin-1-yl)-1,3,4-oxadiazol-2-yl)-7-oxo-1,6-diazabicyclo[3.2.1]octan-6-yl hydrogen sulfate] and `NC1CCN(Cc2nnc([C@@H]3CC[C@@H]4CN3C(=O)N4OS(=O)(=O)O)o2)CC1` [Compound 774, (2S,5R)-2-(5-((4-aminopiperidin-1-yl)methyl)-1,3,4-oxadiazol-2-yl)-7-oxo-1,6-diazabicyclo[3.2.1]octan-6-yl hydrogen sulfate] fall in the same range of binding affinity: 1 to 99 mM⁻¹ s⁻¹ for the first, 1 to 99 mM⁻¹ s⁻¹ for the second.

`O=C1N2C[C@@H](CC[C@H]2c2nnc(CCN3CCNCC3)o2)N1OS(=O)(=O)O` [Compound 776, (2S,5R)-7-oxo-2-(5-(2-(piperazin-1-yl)ethyl)-1,3,4-oxadiazol-2-yl)-1,6-diazabicyclo[3.2.1]octan-6-yl hydrogen sulfate] and `O=C1N2C[C@@H](CC[C@H]2c2nnc(CN3CCNCC3)o2)N1OS(=O)(=O)O` [Compound 777, (2S,5R)-7-oxo-2-(5-(piperazin-1-ylmethyl)-1,3,4-oxadiazol-2-yl)-1,6-diazabicyclo[3.2.1]octan-6-yl hydrogen sulfate] fall in the same range of binding affinity: 1 to 99 mM⁻¹ s⁻¹ for the first, 1 to 99 mM⁻¹ s⁻¹ for the second.

`N[C@H]1CC[C@@H](c2nnc([C@@H]3CC[C@@H]4CN3C(=O)N4OS(=O)(=O)O)o2)CC1` [Compound 780, (2S,5R)-2-(5-((1s,4R)-4-aminocyclohexyl)-1,3,4-oxadiazol-2-yl)-7-oxo-1,6-diazabicyclo[3.2.1]octan-6-yl hydrogen sulfate] and `N[C@H]1C[C@H](c2nnc([C@@H]3CC[C@@H]4CN3C(=O)N4OS(=O)(=O)O)s2)C1` [Compound 783, (2S,5R)-2-(5-((1r,3S)-3-aminocyclobutyl)-1,3,4-thiadiazol-2-yl)-7-oxo-1,6-diazabicyclo[3.2.1]octan-6-yl hydrogen sulfate] fall in the same range of binding affinity: 1 to 99 mM⁻¹ s⁻¹ for the first, 1 to 99 mM⁻¹ s⁻¹ for the second.

First: N=C(N)N[C@H]1C[C@@H](c2nnc([C@@H]3CC[C@@H]4CN3C(=O)N4OS(=O)(=O)O)s2)C1 [Compound 784, (2S,5R)-2-(5-((1s,3R)-3-guanidinocyclobutyl)-1,3,4-thiadiazol-2-yl)-7-oxo-1,6-diazabicyclo[3.2.1]octan-6-yl hydrogen sulfate]
Second: N=C(N)N[C@H]1C[C@H](c2nnc([C@@H]3CC[C@@H]4CN3C(=O)N4OS(=O)(=O)O)s2)C1 [Compound 785, (2S,5R)-2-(5-((1r 3S)-3-guanidinocyclobutyl)-1,3,4-thiadiazol-2-yl)-7-oxo-1,6-diazabicyclo[3.2.1]octan-6-yl hydrogen sulfate]
The binding affinity of the first is lower: 1 to 99 mM⁻¹ s⁻¹ for the first, 100 to 999 mM⁻¹ s⁻¹ for the second.
